Target: Fluorescently labelled FVIII (Oregon Green-FVIII) (UniProt P00451)
Experiment: cell-based or functional assay

Sequence of UniProt P00451 (P00451 other isoform, or with tags, fused parts or gaps): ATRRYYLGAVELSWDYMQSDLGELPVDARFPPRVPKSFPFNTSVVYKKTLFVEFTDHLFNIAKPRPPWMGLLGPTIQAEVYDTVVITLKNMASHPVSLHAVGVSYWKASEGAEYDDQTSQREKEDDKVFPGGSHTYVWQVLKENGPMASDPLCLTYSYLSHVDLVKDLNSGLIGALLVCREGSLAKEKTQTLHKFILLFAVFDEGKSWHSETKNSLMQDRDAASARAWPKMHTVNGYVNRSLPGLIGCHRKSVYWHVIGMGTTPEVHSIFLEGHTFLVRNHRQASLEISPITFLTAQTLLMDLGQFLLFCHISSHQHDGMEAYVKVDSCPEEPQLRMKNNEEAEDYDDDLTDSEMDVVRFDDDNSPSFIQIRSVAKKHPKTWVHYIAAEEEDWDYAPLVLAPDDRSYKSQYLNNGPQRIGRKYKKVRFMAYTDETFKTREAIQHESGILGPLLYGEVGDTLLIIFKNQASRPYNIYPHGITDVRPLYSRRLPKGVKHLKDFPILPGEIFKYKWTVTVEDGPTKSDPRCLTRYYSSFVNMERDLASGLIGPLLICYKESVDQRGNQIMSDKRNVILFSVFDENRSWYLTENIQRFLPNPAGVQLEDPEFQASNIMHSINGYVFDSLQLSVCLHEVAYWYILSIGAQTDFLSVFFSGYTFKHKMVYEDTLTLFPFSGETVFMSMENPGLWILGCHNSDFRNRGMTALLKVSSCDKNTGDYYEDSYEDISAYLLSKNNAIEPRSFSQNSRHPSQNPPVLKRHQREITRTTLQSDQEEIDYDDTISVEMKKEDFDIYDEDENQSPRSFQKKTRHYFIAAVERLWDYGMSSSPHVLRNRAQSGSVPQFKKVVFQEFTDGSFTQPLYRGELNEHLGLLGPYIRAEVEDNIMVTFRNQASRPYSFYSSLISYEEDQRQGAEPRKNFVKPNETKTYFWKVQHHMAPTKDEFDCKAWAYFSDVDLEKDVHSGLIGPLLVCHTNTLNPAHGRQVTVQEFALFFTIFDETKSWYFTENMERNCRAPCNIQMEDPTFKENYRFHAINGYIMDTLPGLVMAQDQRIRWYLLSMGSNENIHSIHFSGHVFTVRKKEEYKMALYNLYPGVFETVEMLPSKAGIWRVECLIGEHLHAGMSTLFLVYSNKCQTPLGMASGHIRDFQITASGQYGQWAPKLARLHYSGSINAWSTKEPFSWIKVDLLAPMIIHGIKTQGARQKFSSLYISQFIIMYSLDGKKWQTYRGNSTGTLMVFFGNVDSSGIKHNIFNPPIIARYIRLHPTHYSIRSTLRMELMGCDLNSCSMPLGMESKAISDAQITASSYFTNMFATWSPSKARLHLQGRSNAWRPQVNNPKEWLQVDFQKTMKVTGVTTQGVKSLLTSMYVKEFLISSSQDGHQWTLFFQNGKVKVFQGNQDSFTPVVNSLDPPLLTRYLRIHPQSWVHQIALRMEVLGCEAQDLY

An IC50 (nM), inhibition of FVIII uptake in human dendritic cells of 9.8 nM, an IC50 (nM), inhibition of FVIII uptake in macrophages of 15.6 nM and a Maximal inhibition (%), FVIII uptake in macrophages of 32.6% were found for “Plasma derived full length VWF, VWF ([…]) (a stretch of the chain, sequence left out) (other; Oregon Green fluorescent label)” in this work.
